From PubChem BioAssay AID1461 (National Center for Advancing Translational Sciences (NCATS), 2008)
In all, about 220,000 compounds went through this assay and about 2,300 (1%) were called active. This list was built around the results that the source calls inconclusive (neither active nor inactive); the mix of calls is not that of the screen. The call rests on the fitted dose curve; in most records, active means well fitted inhibition curve with a large enough effect; inconclusive means small, poorly fitted or top-dose-only effect, or effect the other way; inactive means no such curve, though single readings can be large or run the other way. Potencies of inconclusive entries are left out as doubtful fits.

molecular target: Neuropeptide S receptor (Homo sapiens) (UniProt Q6W5P4); assay: qHTS Assay for Antagonists of the Neuropeptide S Receptor: cAMP Signal Transduction; details: CHO-NPSR cells, cAMP TR-FRET, antagonist mode; activity change, negative = inhibition: at 38.3 µM (top of the series) unless noted; further: nearly all actives have a fitted effect of over 50% in size
On the % scale 0 is the no-effect control and ±100 the full control effect; potency means the concentration at half of the fitted maximal effect; tags describe the fitted curve by direction and shape.

UniProt Q6W5P4, sequence (Q6W5P4 whole entry, looked up): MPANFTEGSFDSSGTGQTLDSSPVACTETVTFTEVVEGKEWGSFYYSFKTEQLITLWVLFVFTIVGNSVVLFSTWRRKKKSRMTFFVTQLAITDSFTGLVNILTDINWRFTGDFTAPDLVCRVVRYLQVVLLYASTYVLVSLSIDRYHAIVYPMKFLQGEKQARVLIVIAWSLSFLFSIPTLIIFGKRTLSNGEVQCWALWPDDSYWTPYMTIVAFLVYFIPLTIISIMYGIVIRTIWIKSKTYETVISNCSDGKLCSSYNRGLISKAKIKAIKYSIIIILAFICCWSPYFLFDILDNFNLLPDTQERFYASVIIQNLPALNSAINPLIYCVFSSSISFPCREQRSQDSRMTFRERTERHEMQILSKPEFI

How did the Potency turn out when `O=C(Nc1ccc2snnc2c1)Nc1cccc2ccccc12` was run?
Its Potency is inconclusive [inhibitor, partial curve].

With `COc1ccc(CCNC(=O)c2ccc(CNS(=O)(=O)c3cccc(Cl)c3)cc2)cc1OC` as the compound, how does the “activity change, negative = inhibition” value read?
The value was inactive: 6.64%.

Which “activity change, negative = inhibition” value does the source give for `NNC(=O)c1ccc(Cn2cc(Cl)cn2)cc1` here?
The value was inactive: 8%.

Which “activity change, negative = inhibition” value does the source give for `CCCn1c(=N)n(CCOc2ccc(OC)cc2)c2ccccc21` here?
Its value is inactive: -8.04% [at 46.1 µM].

With `C=CCn1c(SCc2c(C(=O)OC)sc(N)c2C(=O)OC)nnc1-c1ccc(Cl)cc1` as the compound, how does the Potency read?
Its Potency is inconclusive [inhibitor, single point].

`O=C(NCc1ccc(OC(F)(F)F)cc1)C1CC(c2c(Cl)cccc2Cl)=NO1` (stereo not given) was tested. Which Potency did it give?
The Potency was inconclusive [inhibitor, single point].

How did the “activity change, negative = inhibition” value turn out when `O=C(N1CCCC1)N1CCN(c2ncnc3c(-c4ccc(Cl)cc4)nsc23)CC1` was run?
The value was inactive: -6.7% [at 46.1 µM].

How did the Potency turn out when `O=C(NC1CC1)C1CC(=O)N(C2CCCCC2)C1` (stereo not given) was run?
Its Potency is inconclusive [inhibitor, single point].

`O=C(NNC(=O)c1cc(-c2ccc(Cl)c(Cl)c2)nc2ccccc12)Nc1ccccc1` was tested. Which Potency did it give?
The Potency was inconclusive [inhibitor, single point].

How did the Potency turn out when `CC(C)Cn1c(N2CCN(C(=O)/C=C/c3ccccc3)CC2)nc2ccccc21` was run?
Its Potency is inconclusive [activator, single point].

For `CN1CCN(c2nc(-c3ccccc3)c3cc(Cl)ccc3n2)CC1`, which Potency is on record?
Its Potency is inconclusive [inhibitor, full curve, poor fit].

How did the Potency turn out when `O=c1[nH]nc(Cc2ccc(Cl)cc2Cl)c2ccccc12` was run?
The Potency was inconclusive [inhibitor, single point].

With `CC(=O)Nc1cccc(C(=O)/C=C/c2ccc[nH]2)c1` as the compound, how does the activity change, negative = inhibition read?
Its activity change, negative = inhibition is inactive: 15.7% [at 7.67 µM].

`COc1ccc(-c2cnc(N)nc2-c2ccc(OCc3ccccc3)cc2O)cc1` was tested. Which Potency did it give?
The Potency was inconclusive [activator, single point].

For `Cn1c(=O)c(=O)n(C)c2cc(S(=O)(=O)CCC(=O)N3CCOCC3)ccc21`, which Potency is on record?
Its Potency is inconclusive [inhibitor, full curve, poor fit].

`O=C1c2ccccc2C(=O)c2c1cccc2N1CCN(CCO)CC1` was tested. Which Potency did it give?
Its Potency is inconclusive [inhibitor, single point].

Which Potency does the source give for `O=C(CSc1nnc(Cn2nnc3ccccc32)o1)Nc1ccc(Cl)cc1` here?
The Potency was inconclusive [activator, full curve, poor fit].

With `N#CC1(Cc2ccccc2)c2ccccc2C=CN1C(=O)c1ccccc1` (stereo not given) as the compound, how does the Potency read?
The Potency was inconclusive [inhibitor, single point].

`COc1ccc(CCNC(=O)C2CCCN(Cc3nc(-c4cccc(Cl)c4)oc3C)C2)cc1OC` (stereo not given) was tested. Which Potency did it give?
Its Potency is inconclusive [inhibitor, single point].

`COC(=O)c1sccc1NC(=O)/C=C\c1ccc(Cl)cc1Cl` was tested. Which Potency did it give?
Its Potency is inconclusive [inhibitor, single point].

With `CCCNC(=O)c1ccc2c(=O)n(Cc3ccco3)c(=S)[nH]c2c1` as the compound, how does the “activity change, negative = inhibition” value read?
Its value is inactive: -27.1%.

For `COc1ccc(NS(=O)(=O)c2cccc(NC(=O)CCC(=O)c3ccc(Cl)cc3)c2)cc1`, which Potency is on record?
Its Potency is inconclusive [inhibitor, partial curve].

How did the Potency turn out when `COc1cc(OC)c2ccc(=O)oc2c1C(CCN1CCN(c2ccccc2)CC1)c1ccc2c(c1)OCO2` (stereo not given) was run?
The Potency was inconclusive [inhibitor, single point].

Which “activity change, negative = inhibition” value does the source give for `CCc1cccc2c(N=O)c(O)[nH]c12` here?
The value was inactive: 5.06%.

Which “activity change, negative = inhibition” value does the source give for `CC1CCCCC1NC(=O)c1ccc(S(=O)(=O)NNC(=O)c2ccncc2)cc1` (stereo not given) here?
Its value is inactive: 5.23%.

For `Cc1ccc(-c2nn(-c3ccccc3)cc2CSC(=N)N)cc1`, which Potency is on record?
The Potency was inconclusive [inhibitor, single point].

`Cc1ccc(/C=N/NC(=S)Nc2cccc(S(=O)(=O)N(C)C)c2)o1` was tested. Which Potency did it give?
The Potency was inconclusive [inhibitor, single point].

`N#Cc1c(-c2ccccc2)nc(SCc2nc(N)nc(N3CCCCC3)n2)[nH]c1=O` was tested. Which Potency did it give?
Its Potency is active: 6.31 µM.

With `CCOc1cccc2cc(C(=O)Nc3cc(C)on3)c(=O)oc12` as the compound, how does the Potency read?
Its Potency is inconclusive [inhibitor, single point].

Which Potency does the source give for `Cc1ccc(NS(=O)(=O)c2cccc(C(=O)NCC3(N(C)C)CCCCC3)c2)cc1` here?
Its Potency is active: 10 µM.

With `COc1ccc(C2CC(c3ccccc3)n3nc(NC(=O)c4cccs4)nc3N2)cc1` (stereo not given) as the compound, how does the Potency read?
The Potency was inconclusive [inhibitor, single point].

How did the Potency turn out when `CCc1ccc(C(=O)/C=C/c2ccc([N+](=O)[O-])o2)cc1` was run?
The Potency was inconclusive [inhibitor, full curve].

Which Potency does the source give for `O=C(Oc1cccc(NC(=O)c2ccco2)c1)c1cccc(S(=O)(=O)N2CCCCC2)c1` here?
Its Potency is inconclusive [inhibitor, single point].

How did the “activity change, negative = inhibition” value turn out when `CC(C)c1nnc(NC(=O)c2cc3cc(Br)ccc3oc2=O)s1` was run?
The value was inactive: -0.353%.

Which “activity change, negative = inhibition” value does the source give for `Cc1ccccc1C(=O)NNC(=O)C(=O)N1CCCCC1` here?
The value was inactive: 6.73%.

For `CCCCCn1c(CN2CCN(C(=O)OCC)CC2)nc2c1c(=O)[nH]c(=O)n2C`, which “activity change, negative = inhibition” value is on record?
Its value is inactive: -8.44% [at 46.1 µM].

`COC(=O)c1ccccc1NC(=O)COc1ccc(S(=O)(=O)N2CCCC2)cc1C` was tested. Which Potency did it give?
The Potency was inconclusive [inhibitor, partial curve, poor fit].

How did the Potency turn out when `CC(=O)c1ccc2cccc3c2c1N=CN3C` was run?
Its Potency is inconclusive [inhibitor, single point].

Which “activity change, negative = inhibition” value does the source give for `C1CCN=C(NC23CC4CC(CC(C4)C2)C3)CC1` here?
Its value is inactive: 13.6%.

For `Cc1ccc(NC(=O)Nc2cc(Cl)ccc2C2COC(=O)C2=N)cc1` (stereo not given), which “activity change, negative = inhibition” value is on record?
The value was inactive: -2.39%.

Which Potency does the source give for `O=C(CN1CCN(Cc2ccccc2)CC1)N1CCCc2c1c(=O)oc1ccc(O)cc21` here?
The Potency was inconclusive [inhibitor, single point].

Which Potency does the source give for `CCn1c(C)nc2cc(C(=O)OC(C(F)(F)C(F)F)C(F)(F)C(F)F)ccc21` here?
The Potency was inconclusive [inhibitor, single point].

How did the Potency turn out when `C=CCOC(=O)C1=C[C@H](c2ccc(C(F)(F)F)cc2)[C@@H](CCCO)[C@H](OCC)O1` was run?
The Potency was inconclusive [activator, partial curve].

How did the Potency turn out when `COc1ccc(Oc2cnc3ccccc3n2)cc1` was run?
Its Potency is inconclusive [inhibitor, single point].

How did the Potency turn out when `O=C(c1ccc(-c2ccccc2)cc1)N1CCN(C(=O)c2ccco2)CC1` was run?
Its Potency is inconclusive [inhibitor, partial curve, poor fit].

How did the Potency turn out when `C=C(C)CSc1nc2sc3c(c2c(=O)n1C1CCCCC1)CCN(C)C3` was run?
The Potency was inconclusive [inhibitor, single point].

Which Potency does the source give for `CCCOc1c(Cl)cc(C(=O)Nc2ccc3c(c2)OCO3)cc1OCC` here?
Its Potency is inconclusive [inhibitor, partial curve].

`Cc1ccccc1Nc1scc(-c2ccc(Cl)cc2)[n+]1-c1ccccc1C` was tested. Which Potency did it give?
The Potency was active: 7.94 µM.

How did the Potency turn out when `N#Cc1cc2c([nH]c1=O)CCCC2` was run?
The Potency was inconclusive [inhibitor, single point].

For `CC1(C)Cc2c(sc3c2C(=O)N(c2ccccc2)C2=NCCN23)CS1`, which “activity change, negative = inhibition” value is on record?
Its value is inactive: -10.6% [at 46.1 µM].

`COc1ccc(C(=O)N(Cc2nc(-c3ccc(C)cc3)no2)C2CCCCC2)cc1OC` was tested. Which Potency did it give?
The Potency was inconclusive [inhibitor, partial curve].

With `COc1ccc2nc(C)cc(N3CC(C)OC(C)C3)c2c1` (stereo not given) as the compound, how does the Potency read?
Its Potency is inconclusive [inhibitor, full curve, poor fit].

With `CSc1nnc(CSCc2ccc(Cl)cc2Cl)n1-c1ccccc1` as the compound, how does the Potency read?
Its Potency is inconclusive [inhibitor, single point].

With `N#CC1=C(SCC(=O)c2ccc(Br)cc2)NC2=C(C(=O)CCC2)C1c1ccco1` (stereo not given) as the compound, how does the Potency read?
The Potency was inconclusive [inhibitor, single point].

How did the Potency turn out when `C=CCc1cc(/C=N/NC(=O)CSc2nnc(CCCc3ccc(OC)cc3)o2)cc(OC)c1O` was run?
The Potency was inconclusive [inhibitor, single point].

For `COCCCNC(=O)c1ccc2c(=O)n(Cc3ccc4c(c3)OCO4)c(=S)[nH]c2c1`, which “activity change, negative = inhibition” value is on record?
The value was inactive: 6.35% [at 46.1 µM].

Which “activity change, negative = inhibition” value does the source give for `Cn1ncc2c(NNC(=O)Cc3ccccc3)ncnc21` here?
Its value is inactive: 21.6%.

Which Potency does the source give for `Cc1cc(C)n(CC(=O)c2ccc(Br)cc2)c(=O)c1C#N` here?
Its Potency is inconclusive [inhibitor, single point].

For `CCOC(=O)c1c(-c2cccc3ccccc23)csc1NC(=O)C1C2CCC(O2)C1C(=O)O` (stereo not given), which “activity change, negative = inhibition” value is on record?
The value was inactive: -25.3%.

Which “activity change, negative = inhibition” value does the source give for `O=C(NCCc1ccccc1)C1CCN(C(=O)c2sccc2-n2cccc2)CC1` here?
Its value is inactive: -9.35% [at 46.1 µM].

With `FC(F)(F)c1cccc(NC(=S)N(CCCN2CCCC2)Cc2cccn2Cc2ccc(Cl)cc2)c1` as the compound, how does the Potency read?
The Potency was active: 10 µM.

With `CSCc1cc(N(C)C)nc(SCc2ccc(Cl)c(Cl)c2)n1` as the compound, how does the Potency read?
Its Potency is inconclusive [inhibitor, single point].

For `CCOC(=O)N1CCC(Nc2c(Nc3cccc(CC)c3)c(=O)c2=O)CC1`, which Potency is on record?
Its Potency is inconclusive [inhibitor, partial curve, poor fit].

`COc1ccc(CCn2c(C3CCCCC3)nc3c(c(=O)c4ccccc4n3C)c2=O)cc1` was tested. Which Potency did it give?
Its Potency is inconclusive [inhibitor, partial curve, poor fit].

For `CCOC(=O)N1CCN(CCC(=O)Nc2ccc(OC)cc2OC)CC1`, which Potency is on record?
Its Potency is inconclusive [activator, full curve, poor fit].

Which Potency does the source give for `O=C(N/N=C/c1cccc(Oc2ccccc2)c1)c1ccccc1Br` here?
Its Potency is inconclusive [inhibitor, partial curve].

`CC(=O)c1sc(N/N=C/c2cccc(O)c2)nc1C` was tested. Which “activity change, negative = inhibition” value did it give?
The value was inactive: -8.57%.

For `Cc1onc(-c2ccccc2)c1NC(=O)Nc1ccc(OC(F)F)cc1`, which “activity change, negative = inhibition” value is on record?
Its value is inactive: 4.29%.

Which “activity change, negative = inhibition” value does the source give for `CCc1cc(SC#N)cc(C)c1N` here?
Its value is inactive: -4.09%.

For `Cc1nc2ncnn2c(N2CCN(C(c3ccccc3)c3ccccc3)CC2)c1C`, which Potency is on record?
The Potency was inconclusive [inhibitor, partial curve].
